The record followed here is a collection of fitness landscapes (doi:10.1126/science.1257360).

This is one part of the list.

B1: PhoQ; a variant is named by its letters at X, in order, P23837 (parent)
chain: MKKLLRLFFPLSLRVRFLLATAAVVLVLSLAYGMVALIGYSVSFDKTTFRLLRGESNLFYTLAKWENNKLHVELPENIDKQSPTMTLIYDENGQLLWAQRDVPWLMKMIQPDWLKSNGFHEIEADVNDTSLLLSGDHSIQQQLQEVREDDDDAEMTHSVAVNVYPATSRMPKLTIVVVDTIPVELKSSYMVWSWFIYVLSANLLLVIPLLWVAAWWSLRPIEALAKEVRELEEHNRELLNPATTRELTSLVRNLNRLLKSERERYDKYRTTLTDLTHSLKTPLXXLQXXLRSLRSEKMSVSDAEPVMLEQISRISQQIGYYLHRASMRGGTLLSRELHPVAPLLDNLTSALNKVYQRKGVNISLDISPEISFVGEQNDFVEVMGNVLDNACKYCLEFVEISARQTDEHLYIVVEDDGPGIPLSKREVIFDRGQRVDTLRPGQGVGLAVAREITEQYEGKIVAGESMLGGARMEVIFGRQHSAPKDE

In the test the parent is B1. As to the kind of experiment: enrichment ratio after two sorts for PhoP signalling (ratio (wild type AVST 3.29)); higher = more functional. The following applies: with PhoP (E. coli).
For the variant YSVQ, the enrichment ratio was at most 0.25. In the case of VGRY, the enrichment ratio was at most 0.25. As for LPVS, the figure is at most 0.25; as for LSGI, at most 0.25; as for WKVV, at most 0.25. For the variant TYRQ, the enrichment ratio is at most 0.25. As for VYEA, the figure is at most 0.25.

As for PTIE, the enrichment ratio is at most 0.25. Regarding MSTD, the enrichment ratio was at most 0.25. As for QFYY, the figure is at most 0.25. In the case of CLWM, the enrichment ratio was at most 0.25.

As for KVQT, the enrichment ratio is at most 0.25. As for QEPI, the figure is at most 0.25; as for PSCY, at most 0.25.

Regarding WSFC, the enrichment ratio is at most 0.25. As for DKFP, the figure is at most 0.25; as for YYQN, at most 0.25; as for MFKM, at most 0.25. As for DCRR, the figure is at most 0.25; as for VQYT, at most 0.25; as for IWRV, at most 0.25.

As to RLDH, the enrichment ratio was at most 0.25. As for LNNM, the figure is at most 0.25; as for LQRP, at most 0.25.

As for DMTW, the enrichment ratio is at most 0.25.

Regarding ANVN, the enrichment ratio was at most 0.25. As for GRLW, the figure is at most 0.25. As for RLSH, the figure is at most 0.25.

Take GFYM: the enrichment ratio was at most 0.25. As for KHIS, the figure is at most 0.25. As for SFWW, the figure is at most 0.25. As for GKNE, the figure is at most 0.25; as for TRCR, at most 0.25.

In the case of NFDT, the enrichment ratio was at most 0.25.

On to HWNI, for which the enrichment ratio was at most 0.25. As for MYWG, the figure is at most 0.25; as for DFIW, at most 0.25. As for KGLQ, the figure is at most 0.25. As for AYRH, the figure is at most 0.25; as for IHQL, at most 0.25. FHWW: the enrichment ratio is at most 0.25. As for HNRM, the figure is at most 0.25.

On to EKRF, for which the enrichment ratio is at most 0.25.

For the variant GRDY, the enrichment ratio is at most 0.25. As for YFTY, the figure is at most 0.25. As for ISAT, the figure is at most 0.25; as for SQYD, at most 0.25. As for RMII, the figure is at most 0.25; as for FFRQ, at most 0.25; as for WQGW, at most 0.25. As for QFYV, the enrichment ratio is at most 0.25. As for YANM, the figure is 0.317. Take LEEW: the enrichment ratio was at most 0.25. For the variant RCCE, the enrichment ratio was at most 0.25. As for FYPV, the figure is at most 0.25; as for FEGR, at most 0.25; as for RYFF, 0.259. As for RCNN, the figure is at most 0.25. For GNWK, the enrichment ratio is at most 0.25. In the case of GSAF, the enrichment ratio was at most 0.25. As for VWFT, the figure is at most 0.25; as for HIVV, at most 0.25.

On to FEHK, for which the enrichment ratio is at most 0.25. As for YFFP, the enrichment ratio is at most 0.25. On to DWMT, for which the enrichment ratio was at most 0.25. TVEE: the enrichment ratio was at most 0.25. Consider PPVG, for which the enrichment ratio was at most 0.25.

Take MGHY: the enrichment ratio is at most 0.25. In the case of HWIH, the enrichment ratio was at most 0.25. As for TVVT, the figure is at most 0.25; as for MYAI, at most 0.25.

On to FWYI, for which the enrichment ratio is at most 0.25. As for PFGG, the figure is at most 0.25. As for YNVD, the figure is at most 0.25; as for KRGY, at most 0.25; as for GSMT, 2.16.

Turning to EVTW, the enrichment ratio is at most 0.25.

On to MPCC, for which the enrichment ratio was at most 0.25. With YYNK, the enrichment ratio was at most 0.25.

Regarding YYDK, the enrichment ratio was at most 0.25. As to IDQH, the enrichment ratio was at most 0.25.

Regarding HSWH, the enrichment ratio is at most 0.25. In the case of LCQH, the enrichment ratio was at most 0.25. As for GIVN, the figure is 8.67. As for MWTA, the figure is at most 0.25; as for FPGK, at most 0.25. As for QRAQ, the figure is at most 0.25.

Take VIMQ: the enrichment ratio was at most 0.25.

Turning to SASW, the enrichment ratio is at most 0.25. Turning to YYFN, the enrichment ratio is at most 0.25.

Regarding QIGM, the enrichment ratio was at most 0.25. As for FACP, the figure is at most 0.25; as for DTDD, at most 0.25; as for RADW, at most 0.25.

Regarding QHTK, the enrichment ratio is at most 0.25.

In the case of RCIE, the enrichment ratio is at most 0.25. In the case of STVL, the enrichment ratio worked out at 7.85. As for PELG, the figure is at most 0.25; as for MHDY, at most 0.25.

Consider YKPH, for which the enrichment ratio is at most 0.25. SFAN: the enrichment ratio was at most 0.25. Take IDIL: the enrichment ratio is at most 0.25. As for QEHC, the figure is 11; as for VPDV, at most 0.25. As for HARA, the figure is at most 0.25; as for VCDV, at most 0.25. With IWHQ, the enrichment ratio is at most 0.25.

As to EMGR, the enrichment ratio is at most 0.25. As for TVIN, the figure is at most 0.25.

Regarding VSCP, the enrichment ratio was at most 0.25.

On to PNSW, for which the enrichment ratio is at most 0.25. On to IRMY, for which the enrichment ratio was at most 0.25. As for SAMY, the enrichment ratio came out at 4.56. HWTH: the enrichment ratio was at most 0.25. As for TSFM, the figure is 0.785; as for GQCG, 16.6; as for FEVW, at most 0.25.

For DPDK, the enrichment ratio is at most 0.25. As for TRCA, the figure is 0.602. As for PAWH, the figure is at most 0.25; as for DHTH, at most 0.25; as for FYHN, at most 0.25. As for ESEG, the figure is at most 0.25; as for DFVI, at most 0.25. Turning to QTMR, the enrichment ratio is at most 0.25. As for QPLT, the figure is at most 0.25; as for HIHG, at most 0.25.

For GWSF, the enrichment ratio is at most 0.25. For the variant WQIM, the enrichment ratio was at most 0.25.

Regarding MNRL, the enrichment ratio was at most 0.25. As for YFFC, the figure is at most 0.25; as for RGFR, at most 0.25.

With THTV, the enrichment ratio was 9.73. As for EISN, the figure is at most 0.25; as for REYT, at most 0.25. As for QQCN, the figure is at most 0.25.

For LKPL, the enrichment ratio is at most 0.25. As for EKHL, the figure is at most 0.25. As for KGRA, the figure is at most 0.25; as for EHYS, at most 0.25. As for NKAP, the figure is at most 0.25; as for CYVL, at most 0.25. As to QTVH, the enrichment ratio is at most 0.25. MFLK: the enrichment ratio was at most 0.25. As for YDWV, the enrichment ratio is at most 0.25.

For the variant VQHQ, the enrichment ratio was at most 0.25.

On to GADM, for which the enrichment ratio was at most 0.25.

In the case of YVQV, the enrichment ratio was at most 0.25. As for DYQL, the figure is at most 0.25; as for TLDH, at most 0.25; as for RTFQ, at most 0.25. As for WPSM, the figure is at most 0.25; as for WLWF, at most 0.25. As for FAKD, the figure is at most 0.25; as for LMDS, at most 0.25; as for KSVR, at most 0.25. For NMGR, the enrichment ratio is at most 0.25. On to VWWE, for which the enrichment ratio is at most 0.25. As for YTGR, the figure is at most 0.25; as for TNLG, at most 0.25. Turning to MEGQ, the enrichment ratio was at most 0.25. Consider YTYV, for which the enrichment ratio was at most 0.25.

Take FQYS: the enrichment ratio is at most 0.25. As for AMRH, the figure is at most 0.25. LMEL: the enrichment ratio was at most 0.25. As to WEVE, the enrichment ratio is at most 0.25. VFCD: the enrichment ratio was at most 0.25. Turning to QEYA, the enrichment ratio is at most 0.25.

Take SCRW: the enrichment ratio is at most 0.25.

Regarding PDDI, the enrichment ratio is at most 0.25.

For the variant ATIQ, the enrichment ratio stood at 5.38.

Regarding CFYA, the enrichment ratio was at most 0.25. Regarding KGAS, the enrichment ratio is at most 0.25. As for SDDH, the figure is at most 0.25. As for QFTI, the figure is at most 0.25.

As for LWFE, the enrichment ratio is at most 0.25. As for MTCV, the figure is at most 0.25; as for FCHP, at most 0.25; as for YQLS, at most 0.25. As for SSAG, the figure is 9.87.

For APAP, the enrichment ratio was at most 0.25.

For the variant MDAD, the enrichment ratio is at most 0.25. For NHHD, the enrichment ratio is at most 0.25. Regarding PHSQ, the enrichment ratio was at most 0.25. As for TCSD, the figure is at most 0.25; as for KRDN, at most 0.25; as for RKSP, at most 0.25. As for VYIY, the figure is at most 0.25; as for PVMY, at most 0.25; as for GMKL, at most 0.25.

Turning to HWYH, the enrichment ratio was at most 0.25. As for LSTG, the figure is at most 0.25. Turning to EEFH, the enrichment ratio was at most 0.25. ACFT: the enrichment ratio was at most 0.25. Regarding REMN, the enrichment ratio was at most 0.25.
